Test results as given in article PMC12136788.
This is one part of the list.

B1: chr16:94651144:94651145:+_ENSMUSG00000040785_ENSMUST00000117648|mus_hu|mus_mus_mus_hu_True|68_98 (ssRNA)
RNA: GGGAGUUCUACAGUCCGACGAUCAUUUUCUUGAAUCAAGUGACCGAUAACAUAGUCCACUGCUUCAUGGACAAAAUUUCUGCUAGAAAAACAGGUUGUAUAGUCUUCUGUGCUCAAAACUUUCCAAGAAAGCAAUUCUUUGAGCAACAGAGGAUUGAGCAUCA
B2: 34475664_34475784_6227_CDS_ENSMUSG00000005871_ENSMUST00000115781|mouse|control|control (ssRNA)
RNA: GGGAGUUCUACAGUCCGACGAUCGAGAGAGCUGUUUCUUGAGAAACAGACAGGGGUGUCUUCGACGUGGAAGGACUUGGGAGCAUACCCGGAUGCCUGAGGCUUACUGGGCUCUCCUUGUGAGUUGGCAGGUUCAGCUUCUUUCAACAGAGGAUUGAGCAUCA
B3: 138451967_138452087_1602_CDS_ENSG00000189184_ENST00000344876|human|control|control (ssRNA)
RNA: GGGAGUUCUACAGUCCGACGAUCUCUAUCCAGUGUGGCAUUAGUUAAGAUUAAAUAAUUGUUUUCAUAUGUCUUCUGAAGUUUAAAGUGACCAUGUCCAUGAAGCUUACAAACUAUUUCUCCAUUCAGCCCAGAAUCCUUGUCCAACAGAGGAUUGAGCAUCA
B4: 55523615_55527050_5340_CDS_ENSG00000115355_ENST00000336838|human|control|control (ssRNA)
RNA: GGGAGUUCUACAGUCCGACGAUCACUGCUGUGGCUUUGUGGCCUGCUUUGGUUAUUAACUGCACCUGCUUUGACUUCAUGUAGUGAAGCAUUAUUAUUGCUAUUGCUAGUGGAUGUUCUGCCACUAUCAAGGCUGGCUGGUCUCAACAGAGGAUUGAGCAUCA
B5: chr11:115359251:115359252:-_ENSMUSG00000020737_ENSMUST00000021083|mus_mus|motif|central (ssRNA)
RNA: GGGAGUUCUACAGUCCGACGAUCACACAUCAGGAACCAGAUCAUCUGUUCUUAGAAACAGUCUACUACUCCAGUCGGCGGCGGGAAAACACUCAUGCCAUGGCGCACAGACCCAGGAGUCAGACAGACAGAAGGAAAGGAAGACAACAGAGGAUUGAGCAUCA
B6: chrX:71549400:71549401:+_ENSMUSG00000019087_ENSMUST00000019231|mus_hu|mus_mus_mus_hu_False|48_58 (ssRNA)
RNA: GGGAGUUCUACAGUCCGACGAUCGCAGUAGGAAGAGGGAAGCUCUUCAGUCCAGUGCGCUGCAGGGUGGGAAAGCACAACCUAGACACCAAUACUCCCCUCAACCCCCCCACUGGCACAGGGUCACACAAUCUGGGUCAAAGACAACAGAGGAUUGAGCAUCA
B7: chr8:117878989:117878990:-_ENSG00000164754_ENST00000297338|hu_mus|FALSE|FALSE (ssRNA)
RNA: GGGAGUUCUACAGUCCGACGAUCCCAGAGGCCCUCGUUUACUGAGGACAAAAUGUGCGUAGAACAUUUUUCUUAUUUGCUAUGAAAUAAGAAGAAACCUGGAUCUCGGCGGGGAGCCGGGAGGGGUGGGUGGCCCGGGGAGGGCAACAGAGGAUUGAGCAUCA
B8: chr3:20008827:20008828:+_ENSMUSG00000002428_ENSMUST00000002502|mus_hu|FALSE|FALSE (ssRNA)
RNA: GGGAGUUCUACAGUCCGACGAUCAGAGGCUUUAAGUGGUAUUUCUAUUAAAGACAGGAAUGUUGUAAACUGAGAAACAACCAAACUUUUUAUGUUGGGAUUCUUCUUUCUUAAGUCAGUCAAUGCGUGCAUUAGCGCAUUAAUCAACAGAGGAUUGAGCAUCA
B9: chr4:115894766:115894767:+_ENSMUSG00000028698_ENSMUST00000030464|mus_hu|mus_mus_mus_hu_True|1_1 (ssRNA)
RNA: GGGAGUUCUACAGUCCGACGAUCUUCCACACGGAAAUGUACUUCGGGUUUUCCAACGGCCAGUACCAGUCCGGCCAAACUACCCGAACAGGGUCCUCCCCCUCUCUCCUACAGAACACAACAAAAUGCCCCCGAACCCCGAACCAACAGAGGAUUGAGCAUCA
B10: chr14:62203736:62203737:+_ENSG00000100644_ENST00000337138|hu_hu|FALSE|FALSE (ssRNA)
RNA: GGGAGUUCUACAGUCCGACGAUCUCCAGCGGCUGGGGCCAGCAAAGUUAAAGCAUCAGGUUCCUUCUUAAGUUUGUCAAAGAGGCUACUUGUAUCUUCUGAUUCAACUUUGGUGAAUAGCUGAGUCAUUUUCAUAUCUGAAGACAACAGAGGAUUGAGCAUCA
B11: chr2:9728443:9728444:-_ENSG00000134308_ENST00000238081|hu_hu|motif|central (ssRNA)
RNA: GGGAGUUCUACAGUCCGACGAUCUUGCAUCUCUUUCUUGCUUAUAUCAAAUGCCUCUUGGUAAGCUCCUUGGGAAUUAUCGGUCGUUUGUUUUCGAUCAUCACCACACGCAACUUCAGCAAGGUACCGGAAGUAAUCACCCUUCAACAGAGGAUUGAGCAUCA
B12: 49752748_49760177_1554_CDS_ENSG00000102531_ENST00000398316|human|control|control (ssRNA)
RNA: GGGAGUUCUACAGUCCGACGAUCGCCUGGUUUAUCAGGGCAAGUAGUAAAUUCUACUACUUCACUUGGAUUACUUUUACCUUCUGAGUUGUAAGCAAUAACCUUAAAUUUAUACUUAGUACUACGUCUGAGAUUUUUCACUGUCAACAGAGGAUUGAGCAUCA
B13: chr7:65705844:65705845:+_ENSG00000169902_ENST00000304842|hu_mus|hu_hu_hu_mus_False|58_108 (ssRNA)
RNA: GGGAGUUCUACAGUCCGACGAUCAAAAGGAUCUUUAUUACAUAAAUAAGGUGCCGGCUCCCCAUGUUUAACAAUGAUUUCUAGUAAGAAGGCUUGCAUGGCAGAAUCUAGCACUUCAUCUGUGACACCCGCCUCAUCCAAGCGCAACAGAGGAUUGAGCAUCA
B14: 48269489_48269609_6319_3pUTR_ENSMUSG00000038143_ENSMUST00000079195|mouse|control|control (ssRNA)
RNA: GGGAGUUCUACAGUCCGACGAUCACGUCCUCUCCUGUUCACAGGGCACUCGGUUCUUCCAAUGGCUACGUUCAGAGGGUCAGAGACUAAUGUAUUGUUUUAAUGGUCCUAUUAUUUAUGACUUGAGUAUGCCAAAAGUUUCAGCAACAGAGGAUUGAGCAUCA
B15: 45577590_45582230_658_3pUTR_ENSMUSG00000025217_ENSMUST00000065601|mouse|control|control (ssRNA)
RNA: GGGAGUUCUACAGUCCGACGAUCGUGACUUGGCGUCCAAGUAUGACAGAAUGUUCUCAGCGAUGUGGUCCAGACCCCGUGCUGGCAGUGCAGUUAUGAAAUCCCUCUGCAGCAUAGGUUUUAGGUAGGAGUUGAUGUGCCCAUCAACAGAGGAUUGAGCAUCA
B16: chr7:56045873:56045874:+_ENSG00000146729_ENST00000322090|hu_mus|FALSE|FALSE (ssRNA)
RNA: GGGAGUUCUACAGUCCGACGAUCCUUUUUGGCUAGGAGGUUGGAGUGGGCAUCUUUCCUUGGAUCGACCUUUCUGACAAACAAGGACUUUAGCCAGCUGUCUUCCCGAGCUCGGUGACUUGAGGAUGUCACUGUCCGGAGCCCCAACAGAGGAUUGAGCAUCA
B17: chr9:44212477:44212478:-_ENSMUSG00000032112_ENSMUST00000034623|perfect_dup|motif|central (ssRNA)
RNA: GGGAGUUCUACAGUCCGACGAUCUGGAUUCUUGAGGGCAAAGUCUGAGUAAAUCUCAUAAAUCUUUCGGAGAAGAGAAUCGGUUCCAGCUUGCCUAGGAUCUGCUAGAACCACAAACUUGAUCCCUGUCAGUGUCUGGUAGCACAACAGAGGAUUGAGCAUCA
B18: 110835611_110835731_665_3pUTR_ENSG00000164211_ENST00000296632|human|control|control (ssRNA)
RNA: GGGAGUUCUACAGUCCGACGAUCAAGUUGGUUAAAGUGCUUGCCAUGGCUGUAUCUACCGCAGACUGAGGAAUCAUCCCACGCAGAUCUGUCUGAAUAUAUCCUGUCAAAAGACUCUGGUUUGGGUUGUCUUUAAGUGGAACACAACAGAGGAUUGAGCAUCA
B19: 120254907_120255027_511_CDS_ENSMUSG00000062822_ENSMUST00000026519|mouse|control|control (ssRNA)
RNA: GGGAGUUCUACAGUCCGACGAUCUUCAAAGAGAAAUUCAGAGCCGCAAGGAGAGAGCUGCAGCGUGGACCCACAAGCGUAGUGCACUUGGACGGAAUCAUCCUCAUAGAGCACCAUUCGCACCUCAGCUGCCAUUCCCAUGCCCAACAGAGGAUUGAGCAUCA
B20: chr12:39763582:39763583:-_ENSG00000139116_ENST00000544797|hu_mus|hu_hu_hu_mus_False|28_28 (ssRNA)
RNA: GGGAGUUCUACAGUCCGACGAUCCUCUAGGAACUGGGCAUUCACUUUGAAUUCAGGAGGGGGCAGCCCGUUUUUAAUCGCUGAGGUCUUUUUCUCAUCAAUACUCUUAAAAAGGUGUCUAACAGCACGAGAGAUGAUGCCCUGCAACAGAGGAUUGAGCAUCA
B21: chr14:61435135:61435136:+_ENSG00000020426_ENST00000539616|hu_hu|motif|central (ssRNA)
RNA: GGGAGUUCUACAGUCCGACGAUCUAAAUACUUUAACACAGCUGCUAGUGGAAGGACUGUGUUGUGCAGCUGCACAUAGCGGUAAUUUUAUAAGUCUGCUUUACUUUUGCUAGCUCCCUGGUUCAGCUCCAAGGUCCAAAUCUUCAACAGAGGAUUGAGCAUCA
B22: chr2:9570881:9570882:+_ENSG00000119203_ENST00000238112|hu_mus|hu_hu_hu_mus_False|8_98 (ssRNA)
RNA: GGGAGUUCUACAGUCCGACGAUCACUUGUCUUCUGAAGAAACCAGGGCAGGGCUCCACAGUGAUCCAAAUGGAAAUGACUGAUCAACAGAAGGUCGAUCUCAGCUGGGUCGAUAAGGUCAAUGUAAGGAAGAGCAUCCAUUCCCAACAGAGGAUUGAGCAUCA

Target: T1, UNK ZnF1-3 (human, UniProt Q9C0B0 31-174)
T1 sequence: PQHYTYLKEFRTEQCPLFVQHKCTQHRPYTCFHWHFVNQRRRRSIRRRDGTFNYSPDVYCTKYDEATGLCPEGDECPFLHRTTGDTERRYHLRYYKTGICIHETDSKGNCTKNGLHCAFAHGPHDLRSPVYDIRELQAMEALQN
Assay: nsRBNS (natural sequence RNA bind-n-seq); RBNS binding buffer (assumed for nsRBNS): 25 mM Tris pH 7.5, 150 mM KCl, 3 mM MgCl2, 0.01% Triton X-100, 500 ug/ml BSA, 20 U/ml SUPERase-In, 4 C; UNK is unkempt and MSI1 is Musashi-1; names of the RNAs are library labels; protein concentration not given here; high values mean tight binding

First: B1
Second: B2
The binding signal of the first is lower: 0.362 enrichment R for the first, 1.11 enrichment R for the second.

Compared with B3, B4 is lower in binding signal: 1.98 enrichment R for the first, 0.429 enrichment R for the second.

Compared with B5, B6 is lower in binding signal: 1.96 enrichment R for the first, 1.47 enrichment R for the second.

Going from B7 to B8, the binding signal falls from 1.21 enrichment R to 0.332 enrichment R.

Going from B9 to B10, the binding signal rises from 1.05 enrichment R to 1.16 enrichment R.

Compared with B11, B12 is lower in binding signal: 0.848 enrichment R for the first, 0.457 enrichment R for the second.

First: B13
Second: B14
The binding signal of the first is lower: 0.958 enrichment R for the first, 1.08 enrichment R for the second.

Compared with B15, B16 is lower in binding signal: 0.915 enrichment R for the first, 0.908 enrichment R for the second.

First: B17
Second: B18
The binding signal of the first is lower: 0.621 enrichment R for the first, 0.949 enrichment R for the second.

Compared with B19, B20 is higher in binding signal: 1.52 enrichment R for the first, 1.74 enrichment R for the second.

First: B21
Second: B22
The binding signal of the first is lower: 0.672 enrichment R for the first, 2.2 enrichment R for the second.
